This assay is described as follows: qHTS Assay for Lipid Storage Modulators (AID 1519). Conditions: Drosophila S3 cells, BODIPY lipid droplet/cell ratio, laser cytometry, cells loaded with oleic acid. Summed up: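 Cells seeded at 5,000 per well were treated with compounds over a concentration series and loaded with oleic acid (400 uM, as added). Lipid droplet fluorescence (488 nm excitation, 500-530 nm channel) was read by laser-scanning cytometry and normalized to 20 uM Triacsin C.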

Setting [1] is: measured here: cell count channel max response.
Where [2] appears, read: measured here: lipid (BODIPY) channel AC50.
[3] abbreviates: measured here: lipid channel max response.
Where [4] appears, read: measured here: cell number channel AC50.

Some of the results follow. Shown are side measurements of this screen, not its main read-out; they come without a call. Compounds called inactive in the main read-out are mostly missing here. Words in brackets tell the shape of the fitted curve; partial curves, single points and poor fits give uncertain potencies.
Tags give direction and shape of the fitted curve.

Broadly, the AC50 is the midpoint of the concentration-response curve, whichever way the signal moves. For the compound `COc1cc(N)c(Cl)cc1C(=O)OCCN1CCCCC1`, the max response by setting is: under setting [1], 46.9%; under setting [3], 47.9%. The half-maximal activity concentration (AC50) under setting [2] is 44.7 µM [rising, single point].
Consider `COc1cccc(Nc2ncc3ncc(=O)n(C[C@H]4CCCO4)c3n2)c1`, for which the max response reads like this: under setting [1], -35.3%; under setting [3], -61.1%. For the same compound, the AC50 under setting [4] is 39.8 µM [falling, single point].
Consider `c1cncc(CNc2ncnc3ccc(-c4ccoc4)cc23)c1`, for which the max response reads like this: under setting [1], 19.7%; under setting [3], 22.9%. Under setting [2], the AC50 is 5.62 µM [rising, full curve, poor fit].
For the compound `COCCNc1nc(-c2c(C)noc2C)nc2ccccc12`, the max response reads like this: under setting [1], 33.9%; under setting [3], 43.9%. The AC50 under setting [2] is 31.6 µM [rising, partial curve, poor fit].
Consider `COc1ccc([C@@H]2CC(=O)c3c(O)cc(O)cc3O2)cc1O`, for which the max response turned out to be 25.1% under setting [1] and 32.1% under setting [3]. Further, the AC50 under setting [2] was 3.98 µM [rising, partial curve, poor fit].
Take `COc1ccc(Oc2ncc3nc(-c4cccs4)c(=O)n(Cc4cccc(OC)c4)c3n2)cc1`: the max response by setting is: under setting [1], 51.8%; under setting [3], -2.67%. The concentration at half-maximal activity (AC50) under setting [4] is 1 µM [rising, full curve].
Take `Fc1ccc([C@H]2CCNC[C@H]2COc2ccc3c(c2)OCO3)cc1`: the max response was 65% under setting [1] and 82.4% under setting [3]. Also, the AC50 under setting [2] was 31.6 µM [rising, partial curve].
Take `Cc1cnc(CNc2nc(-c3ccc(C(=O)N(C)C)cc3)nc3ccccc23)cn1`: the max response turned out to be 19.3% under setting [1] and 35.8% under setting [3]. Besides, under setting [2], the AC50 is 11.2 µM [rising, partial curve, poor fit].
Take `O=C(O)c1cc2ccccc2[nH]1`: the max response came out at 27.5% under setting [1] and 40.5% under setting [3]. For the same compound, the half-maximal activity concentration (AC50) under setting [2] is 39.8 µM [rising, single point].
On to `O=c1c(CCc2ccccc2)nc2cncnc2n1Cc1ccccc1`, for which the max response under setting [1] was determined as 13.1% and the max response under setting [3] was 20.7%. Besides, the half-maximal activity concentration (AC50) under setting [2] was 0.0251 µM [rising, full curve, poor fit].
For `N#Cc1cccc(-c2ccc3ncnc(NCc4cccs4)c3c2)c1`, the max response under setting [1] was -24.3% and the max response under setting [3] was -36.7%. In addition, the AC50 under setting [2] was 3.16 µM [falling, single point].
Consider `COc1cccc(Cn2c(=O)c(-c3cc(F)cc(F)c3)nc3cnc(N4CCOCC4)nc32)c1`, for which the max response is, setting by setting: under setting [1], 9.08%; under setting [3], 13.3%. Moreover, the AC50 under setting [2] is 0.447 µM [rising, full curve, poor fit].
`c1ccc2c(N3CCNCC3)nc(-c3ccc4c(c3)OCO4)nc2c1`: the max response runs as follows: under setting [1], 18.2%; under setting [3], 32.5%. Also, the AC50 under setting [2] was 0.0891 µM [rising, full curve, poor fit].
Consider `CS(=O)(=O)N1CCC2(CCCN(C(=O)Nc3cccc(F)c3)C2)CC1`, for which the max response was determined as 16% under setting [1] and 25% under setting [3]. Also, under setting [2], the concentration at half-maximal activity (AC50) was 0.00794 µM [rising, full curve, poor fit].
As to `O=C(Nc1cccc(F)c1)N1CCC2(CC1)CCN(C(=O)c1ccncc1)CC2`, the max response turned out to be 18.3% under setting [1] and 23.6% under setting [3]. The concentration at half-maximal activity (AC50) under setting [2] was 0.00562 µM [rising, full curve, poor fit].
Turning to `CCNc1ncc2nc(-c3cn(C)c4ccccc34)c(=O)n(CCC#N)c2n1`, the max response under setting [1] is 18.1% and the max response under setting [3] turned out to be 22.7%. For the same compound, under setting [4], the half-maximal activity concentration (AC50) was 2.24 µM [rising, partial curve, poor fit].
In the case of `O=C(Nc1cccc(F)c1)N1CCC2(CC1)CCN(C(=O)c1cccc(F)c1)CC2`, the max response amounted to 9.01% under setting [1] and 21.6% under setting [3]. Under setting [2], the AC50 is 0.251 µM [rising, full curve, poor fit].
`O=C(c1csnn1)N1CCC[C@@]2(CCN(Cc3ccccc3)C2)C1`: the max response under setting [1] was 25.4% and the max response under setting [3] is 36.4%. In addition, under setting [2], the AC50 is 0.0126 µM [rising, full curve, poor fit].
`Cc1cccc(CNc2cc(-c3cccc(C#N)c3)ncn2)c1`: the max response runs as follows: under setting [1], -22.1%; under setting [3], -37.5%. Under setting [2], the AC50 was 39.8 µM [falling, single point].
For `COc1ccc(C(=O)N2CCC[C@@]3(CCN(C(=O)Nc4cccc(C#N)c4)C3)C2)cc1`, the max response is 22.2% under setting [1] and 33.9% under setting [3]. Further, the AC50 under setting [2] is 8.91 µM [rising, full curve, poor fit].
As to `O=C(c1cnccn1)N1CCC2(CCCN(c3ccccn3)C2)CC1`, the max response turned out to be 25.1% under setting [1] and 35.9% under setting [3]. The half-maximal activity concentration (AC50) under setting [2] is 1.78 µM [rising, full curve].
Turning to `CNc1nc(-c2ccc(N(C)C)cc2)nc2ccccc12`, the max response under setting [1] was -16.4% and the max response under setting [3] is -16.7%. Further, the concentration at half-maximal activity (AC50) under setting [2] is 1.26 µM [rising, partial curve, poor fit].
As to `CCOC(=O)C(CCc1ccccc1)NC(C)C(=O)N1Cc2ccccc2CC1C(=O)O` (stereo not drawn), the max response amounted to 26% under setting [1] and 44.9% under setting [3]. Besides, the AC50 under setting [2] is 35.5 µM [rising, single point].
Turning to `Cc1cnc(CNc2ncncc2-c2ccoc2)cn1`, the max response came out at 26.1% under setting [1] and 31% under setting [3]. Further, the half-maximal activity concentration (AC50) under setting [2] was 31.6 µM [rising, partial curve, poor fit].
For `O=c1c(CCc2ccccc2)nc2cnc(N3CCOCC3)nc2n1CCc1ccccc1`, the max response stood at 26% under setting [1] and 32.9% under setting [3]. The AC50 under setting [2] is 1 µM [rising, full curve].
Consider `COc1c2ccoc2c(OC)c2oc(=O)ccc12`, for which the max response amounted to 23.1% under setting [1] and 39.1% under setting [3]. The AC50 under setting [2] is 1 µM [rising, full curve].
On to `O=c1c(-c2ccc(O)cc2)coc2c(C3OC(CO)C(O)C(O)C3O)c(O)ccc12` (stereo not drawn), for which the max response is, setting by setting: under setting [1], 17%; under setting [3], 31.9%. The concentration at half-maximal activity (AC50) under setting [2] was 0.126 µM [rising, full curve, poor fit].
Consider `C[C@H]1NC(=O)NC1=O`, for which the max response runs as follows: under setting [1], 7.85%; under setting [3], 9.87%. In addition, under setting [2], the half-maximal activity concentration (AC50) is 0.00224 µM [rising, full curve, poor fit].
In the case of `Cn1c(=O)c(-c2ccc(Cl)cc2)nc2cnc(N3CCNCC3)nc21`, the max response amounted to 29.9% under setting [1] and 36.1% under setting [3]. Moreover, the half-maximal activity concentration (AC50) under setting [2] is 25.1 µM [rising, single point].
Take `COC(=O)N1CCC2(CC1)CN(C(=O)Nc1ccc(OC)cc1)C2`: the max response amounted to 20.6% under setting [1] and 30.3% under setting [3]. The concentration at half-maximal activity (AC50) under setting [2] is 0.0141 µM [rising, full curve, poor fit].
As for `Cc1noc(C)c1-c1nc(N(C)C)c2ccccc2n1`, the max response runs as follows: under setting [1], 5.78%; under setting [3], 7.09%. Under setting [2], the AC50 is 0.178 µM [rising, full curve, poor fit].
In the case of `COc1ccccc1CNc1cc(-c2cccc(NS(C)(=O)=O)c2)ncn1`, the max response is -0.471% under setting [1] and 8.74% under setting [3]. Further, under setting [2], the AC50 is 2.82 µM [rising, partial curve, poor fit].
As for `COc1ccc(-n2c(=O)c(-c3cccs3)nc3cnc(Nc4cccc(OC)c4)nc32)cc1`, the max response was 80.5% under setting [1] and -40.7% under setting [3]. The AC50 under setting [4] is 3.16 µM [rising, partial curve].
Regarding `COc1cccc(Nc2ncc3nc(CCc4ccccc4)c(=O)n(C[C@H]4CCCO4)c3n2)c1`, the max response was 10.3% under setting [1] and 4.67% under setting [3]. The AC50 under setting [2] was 0.0708 µM [rising, full curve, poor fit].
Consider `CC1OC(OC2C(CO)OC(OC3C(CO)OC(O)C(O)C3O)C(O)C2O)C(O)C(O)C1NC1C=C(CO)C(O)C(O)C1O` (stereo not drawn), for which the max response by setting is: under setting [1], 7.56%; under setting [3], 31.4%. Further, the AC50 under setting [2] was 35.5 µM [rising, single point].
Turning to `O=c1[nH]cnc2c1ncn2C1CC(O)C(CO)O1` (stereo not drawn), the max response under setting [1] came to 14.4% and the max response under setting [3] is 19%. Moreover, the concentration at half-maximal activity (AC50) under setting [2] is 7.08 µM [rising, single point].
For the compound `CN1CCN(c2ncncc2-c2cccnc2)CC1`, the max response came out at 17.5% under setting [1] and 17.7% under setting [3]. For the same compound, the AC50 under setting [4] is 3.16 µM [rising, single point].
As to `Cn1c(=O)c(CCc2ccccc2)nc2cnc(Nc3ccccc3)nc21`, the max response is, setting by setting: under setting [1], 23.8%; under setting [3], 30.5%. Under setting [2], the half-maximal activity concentration (AC50) was 1 µM [rising, full curve].
As to `COC(=O)N1CCC2(CCCN(C(=O)Nc3ccc(OC)cc3)C2)CC1`, the max response is, setting by setting: under setting [1], 8.17%; under setting [3], 3.16%. The AC50 under setting [2] is 0.01 µM [rising, full curve, poor fit].
As to `CC(C)NCC(O)COc1ccc(CC(N)=O)cc1` (stereo not drawn), the max response is 17.9% under setting [1] and 33.1% under setting [3]. Under setting [2], the AC50 is 28.2 µM [rising, partial curve, poor fit].
For `COC(=O)N1CCC[C@@]2(CCN(Cc3nccs3)C2)C1`, the max response by setting is: under setting [1], 21.2%; under setting [3], 30.2%. The AC50 under setting [2] is 0.00794 µM [rising, full curve, poor fit].
